SMILES strings stand for the structures. Screen size: about 340,000 compounds; about 6,900 (2%) were called active. Cut-off read from the data, not from the text of the source: active = inhibition above about 30%; inactive = below that, where a call was filed. This is a selection; strong and weak results do not stand in their true shares. Where no call is shown, the source filed none.

The inhibition is the drop in the measured response relative to a control, in per cent.

The experiment concerns the target D(2) dopamine receptor (Homo sapiens) (UniProt P14416). Kind of experiment: HTS Assay for Allosteric Antagonists of the Human D2 Dopamine Receptor: Primary Screen for Antagonists. Note: 0% is about no effect. To be noted: HEK293 TREx D2 cells, calcium flux, dopamine EC80; at 10 µM; stronger effect = higher value. The method in brief: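 Overnight-induced (tetracycline, 30 C) HEK293 T-REx cells carrying force-coupled D2 receive a no-wash calcium dye, then compound, then EC80 dopamine at 180 s; signals are read kinetically throughout.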
Sequence of UniProt P14416 (P14416 whole entry, looked up): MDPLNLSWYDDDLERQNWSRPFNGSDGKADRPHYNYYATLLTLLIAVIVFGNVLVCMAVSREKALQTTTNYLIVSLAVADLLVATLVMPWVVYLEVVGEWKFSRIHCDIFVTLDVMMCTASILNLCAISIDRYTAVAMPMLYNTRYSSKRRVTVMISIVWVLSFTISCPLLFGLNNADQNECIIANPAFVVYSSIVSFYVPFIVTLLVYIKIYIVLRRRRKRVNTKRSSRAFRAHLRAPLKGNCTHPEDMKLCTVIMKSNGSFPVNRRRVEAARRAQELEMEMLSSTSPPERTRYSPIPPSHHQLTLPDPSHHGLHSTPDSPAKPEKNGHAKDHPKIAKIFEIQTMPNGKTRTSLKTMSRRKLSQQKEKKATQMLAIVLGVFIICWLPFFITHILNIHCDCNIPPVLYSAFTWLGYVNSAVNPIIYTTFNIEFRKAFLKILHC
Take `CC(=C/c1ccc(C(C)C)cc1)/C=N/NC(=O)c1ccncc1`: the inhibition is active: 36.1%. Take `CCCCOc1ccc(CNC(=O)c2cc3n(n2)CCCN(Cc2ccc(C)cc2)C3=O)cc1`: the inhibition is 2.87%.

Consider `COc1ccc(OCCn2c(C)nc3cc(C)c(C)cc32)cc1`, for which the inhibition is 3.03%. Consider `CCOCc1nnc(NC(=O)c2ccc(OC)cc2)s1`, for which the inhibition is active: 32.9%. On to `CCOC(=O)c1ccccc1NC(=O)n1ncc2cc(Cl)ccc21`, for which the inhibition was -11.6%.

As for `CCc1cccc(C)c1NC(=O)c1cc(S(=O)(=O)N2CCOCC2)cn1C`, the inhibition was -6.13%. Take `Cc1noc(C)c1S(=O)(=O)Nc1ccc(C(=O)Nc2ccc(Br)cc2)cc1`: the inhibition is 16.4%. For the compound `COc1cc(NC(=O)CCn2cnc3ccccc3c2=O)cc(OC)c1`, the inhibition amounted to 7.36%.

Turning to `Cc1cc(C)cc(NC(=O)C2CCCN(c3ncccn3)C2)c1` (stereo not drawn), the inhibition is active: 50.1%. The figure for `CCCn1c(=N)c(C(=O)NC2CCCC2)cc2c(=O)n3cccc(C)c3nc21` is -3.37%; for `COc1ccc(/C=C(/C#N)c2nc(-c3ccc(-c4ccccc4)cc3)cs2)cc1OC` it is 4.21%; for `COc1ccc(C2Nc3ccc(Br)cc3C(c3ccccc3)N2CC(=O)O)cc1` (stereo not drawn) it is active: 61.2%. Regarding `COc1ccccc1C(=O)N1CCN(Cc2nc3cc([N+](=O)[O-])ccc3n2C)CC1`, the inhibition was active: 35.7%. For the compound `COc1ccc(-c2c(C)nn3c(N4CCN(c5ccccc5)CC4)cc(C)nc23)cc1OC`, the inhibition came out at 10.6%. Consider `COc1ccc(NC(=O)CC2C(=O)N(c3ccc(F)cc3)C(=O)N2Cc2ccc3c(c2)OCO3)cc1` (stereo not drawn), for which the inhibition stood at 15.1%. As for `Cc1ccc(CNc2ncnc3c2nc2n3CCCC2)cc1`, the inhibition is -1.26%. On to `CCN(C(=O)CSc1nc2ccccc2n1CC(=O)NCc1ccc(OC)cc1)c1ccccc1`, for which the inhibition turned out to be 5.1%. Turning to `Cc1ccc2nc(CSc3nnc(NC(=O)c4cccc(Br)c4)s3)cc(=O)n2c1`, the inhibition is -1.03%. For the compound `CCOC(=O)c1cc(-c2ccccc2)n(CCC(=O)NC2CCCCC2)c1C`, the inhibition came to 6.99%. With `CCOC(=O)c1ccc(NC(=O)CN2c3ccccc3S(=O)(=O)c3ccccc32)cc1`, the inhibition is -6.83%.

For the compound `COc1cccc(CNC(=O)CCCN2C(=O)CCn3nc(-c4cccn4C)cc32)c1`, the inhibition turned out to be 3.88%. In the case of `CCOC(=O)c1cccc(NC(=O)Cn2c(=O)nc(-c3ccccc3F)c3cc(Cl)ccc32)c1`, the inhibition is -3.86%. The figure for `CCOc1ccc(CCNC(=O)c2csc3c2CCCCC3)cc1` is 25.8%; for `COc1ccccc1NC(=O)CSc1nnc2c3ccccc3n(C(C)C)c2n1` it is 10.9%; for `COc1ccc(/C=C\c2onc(C)c2S(=O)(=O)N2CCC(C(=O)Nc3cccc(Cl)c3)CC2)cc1` it is 9.55%. The figure for `CCOC(=O)N1CCN(c2ncc3c(n2)CC(c2ccccc2O)CC3=O)CC1` (stereo not drawn) is -0.848%; for `COc1ccc(CCNC(=O)CCc2c(C)nc3cc(-c4ccccc4OC)nn3c2C)c(OC)c1` it is 1.28%. `Cc1ccc(Nc2nnc(-c3cc4c(ccc5ccccc54)oc3=O)s2)cc1`: the inhibition is -7.81%. The figure for `COc1cccc(C(=O)N2CCc3c([nH]c4ccccc34)C2c2ccc(SC)cc2)c1` (stereo not drawn) is -14.9%. Take `COC(=O)c1ccc(OCCN2CCCCCC2)cc1`: the inhibition is active: 55%. Turning to `CNC(=O)C1CCC(Cn2c(=O)c3sccc3n(CC(=O)NCc3cccc(OC)c3)c2=O)CC1` (stereo not drawn), the inhibition was -16.9%. Turning to `Cc1cc(C)cc(Nc2cc(C)nc3nncn23)c1`, the inhibition is -24.3%. As to `CCC(CC)C(=O)Nc1ccc(-c2cn3cccnc3n2)cc1`, the inhibition was determined as 11%. As for `Cc1cccc(-c2nc3scc(CCNC(=O)c4ccc(Br)o4)n3n2)c1`, the inhibition was -9.18%.

As to `Cc1ccc(C)c(N2CCN(CCCNC(=O)C3COc4ccccc4C3)CC2)c1` (stereo not drawn), the inhibition was -16.8%. As to `Cc1cccc(NC(=O)c2ccc(C(=O)Nc3cccc(C)c3C)cc2)c1C`, the inhibition was -0.24%. Next, `CCC(=O)N1CCc2cc(Br)cc(S(=O)(=O)N3CCN(c4ccc(C(C)=O)cc4)CC3)c21`: -14.7%; `CN1CCN(C(c2ccccc2Cl)c2sc3nc(-c4ccco4)nn3c2O)CC1` (stereo not drawn): 15.1%; `O=C(CCCCn1c(=O)c2ccccc2n(Cc2ccc(Cl)cc2)c1=O)NCc1ccccc1Cl`: 2.41%.

In the case of `Cc1cc(OC(C)C(=O)N(Cc2ccco2)Cc2ccccc2F)cc(C)c1Cl` (stereo not drawn), the inhibition is -6.37%. Next, `COc1ccc(C)cc1NCc1nnc2n1CCCCC2`: -26.4%; `Cc1ccc(CCNC(=O)C2CCN(c3nnc(C)c4c(C)n(-c5ccccc5)nc34)CC2)cc1`: 1.47%; `COc1ccc(-c2cc(C(=O)Oc3cccc(C)c3)c3ccccc3n2)cc1`: -5.29%. Take `COc1ccc(NC(=O)C2CCCN(C(=O)c3cnn(-c4ccc(F)cc4)c3-n3cccc3)C2)cc1` (stereo not drawn): the inhibition came out at 3.11%. The figure for `Cn1c(=O)cc(OCC(=O)N2CCN(c3ccccc3)CC2)c2ccccc21` is 3.83%; for `COc1ccc(NC(=O)CSc2nc3ncccc3[nH]2)c(OC)c1` it is 10.8%. As to `CCOc1cccc2sc(N(Cc3cccnc3)C(=O)C3CCCCC3)nc12`, the inhibition was 8.09%. Consider `Cc1ccc(NC(=O)CSCc2cnn(-c3ccccc3)c2-n2cccc2)c(C)c1`, for which the inhibition was -8.39%. As to `Cc1ccc(NC(=O)CSc2nc3ccccc3c3nc(CCn4cncc4C)nn23)cc1F`, the inhibition was found to be 3.02%.

Regarding `CCc1ccccc1NC(=O)c1ccc(F)c(S(=O)(=O)NC2CCCCCC2)c1`, the inhibition was determined as 4%. Consider `CC1CCN(c2ccc(NC(=O)c3cccc(Cl)c3)cc2C(=O)O)CC1`, for which the inhibition is -7.24%. Regarding `Cc1ccc(-c2cc(C(=O)NC(C)c3ccccc3)c3ccccc3n2)cc1C` (stereo not drawn), the inhibition is -19.4%.

Consider `CCCS(=O)(=O)c1ncc(Cl)c(C(=O)N2CCN(c3ccc(OC)cc3)CC2)n1`, for which the inhibition stood at 5.9%. Turning to `Cc1ccc2ncc(C(=O)NCc3ccccc3Cl)c(=O)n2c1`, the inhibition stood at 4.84%.

For the compound `CCC(CC)C(=O)Nc1ccc(OCc2cc(=O)n3ccsc3n2)cc1`, the inhibition is -2.71%. For the compound `CC(=O)Nc1ccccc1-c1nc2ccccc2n(CC(=O)c2ccc(C)c(C)c2)c1=O`, the inhibition came out at 16.3%. Next, `Cc1cccc(C(=O)Nc2c3c(nn2-c2ccc(Cl)cc2)CS(=O)(=O)C3)c1`: 20.7%; `CCOC(=O)c1ccc2c(c1)N(Cc1cccc(OC)c1)C(=O)c1ccccc1S2(=O)=O`: -3.61%; `CC(C)(C)OC(=O)N1CCC(c2c(C(=O)NC3CCN(Cc4ccccc4)CC3)cnn2-c2cccc(F)c2)CC1`: 11.2%. As for `O=C(CSc1nc(-c2ccc(F)cc2)cc(C(F)(F)F)n1)NCc1ccccc1`, the inhibition was -13.9%. For the compound `COc1cc(C2C(=O)N(C3CCCCC3)CC(=O)N2C2CCCC2)ccc1OC(C)C` (stereo not drawn), the inhibition came to 6.74%.

Consider `CCCCNC(=O)CCC(=O)NNc1nc2ccccc2c2nc(-c3ccccc3)nn12`, for which the inhibition was determined as 0.0497%. Consider `CC(=O)Nc1ccc(NC(=O)CCCc2nc(-c3ccc(C(C)(C)C)cc3)no2)cc1`, for which the inhibition is -2.13%.
